The target of test [1] is T1, human ROR1-Fc protein (Sino Biological, 13968-H02H1) (human, UniProt Q01973 in part).
T1 construct: Bought protein; also called human ROR1 protein (13968-H02H1, Fc tag)
In words: DACE ELISA; 14 days in human serum, against day 0. The procedure: (§1) A 96-well microtiter plate (NUNC, 446612) was coated overnight at 4° C. with human ROR1-Fc protein (Sinobio, 13968-H02H1) at 100 ng/well in PBS. The plate was then incubated with 1% BSA buffer (1×PBS, 1% (v/v) BSA) at 200 μl/well at 37° C. for 2 hours to block non-specific binding. Thereafter, the blocking solution was discarded and fourfold dilutions of each bispecific antibody test material (starting from 100 nM) were added to the wells. The plate was incubated at 37° C. for 2 hours and then washed with PBS-T (1×PBS/0.05% (v/v) Tween-20). Subsequently, human 4-1BB-His protein (Sinobio, 10041-H08H) dissolved in 1% BSA buffer was added at 100 ng/well and incubated at 37° C. for 1 hour. After washing with PBS-T, the plate was incubated with anti-His HRP (Roche, Cat: 11965085001) at 37° C. for 1 hour. After washing, color development was performed with TMB (tetramethylbenzidine, Sigma, T0440) and the color development was stopped with 0.5M sulfuric acid (Samchun Chemicals, S1410), and the absorbance (OD) at 450-650 nm was read using a spectrophotometer. Four-parameter logistic curve analysis was performed using GraphPad software.

The target in test [2] is T1, human ROR1-Fc protein (Sino Biological, …). In words: DACE ELISA; 7 days in human serum, against day 0. The protocol:
as §1
Background: ELISA stands for enzyme-linked immunosorbent assay.

The target is the same in test [3]. The test is described as follows: DACE ELISA (ROR1-Fc coated, 4-1BB-His detection); 7 days in monkey serum at 37°C. The protocol: as §1
The target is the same in test [4]. In words: DACE ELISA (ROR1-Fc coated, 4-1BB-His detection); 0 day in human serum at 37°C. The protocol:
as §1

For test [5] the target is unchanged. In words: DACE ELISA (ROR1-Fc coated, 4-1BB-His detection); 14 days in human serum at 37°C. The procedure: as §1
Test [6] has the same target. In words: DACE ELISA: ROR1-Fc coated, detection with 4-1BB-His and anti-His HRP. The protocol: Briefly, 96-well microtiter plates (NUNC, 446612) were coated overnight at 4° C. with human ROR1-Fc protein (Sinobio, 13968-H02H1) in PBS at 10 ng/well, then the plates were incubated with 1% BSA buffer (1×PBS, 1% (v/v) BSA) at 200 μl/well for 2 hours at 37° C. to prevent nonspecific binding. After blocking nonspecific binding, the wells were washed, and serial dilutions of the bispecific antibody test materials (starting at 100 nM) were added to each well. After incubation for 2 hours at 37° C., the plates were washed with PBS-T (1×PBS/0.05% (v/v) Tween-20). Then, human 4-1BB-His protein (Sinobio, 10041-H08H) dissolved in 1% (v/v) BSA was added to each well at 100 ng/well and incubated for 1 hour at 37° C. After washing the plates with PBS-T, anti-His HRP (Roche, Cat: 11965085001) was added and incubated for 1 hour at 37° C. After washing, color development was conducted TMB (tetramethylbenzidine, Sigma, T0440) and the reaction was stopped with 0.5M sulfuric acid (Samchun Chemicals, S1410), followed by reading absorbance (OD) at 450-650 nm in a spectrophotometer. Four-parameter logistic curve analysis was performed using GraphPad software.

Test [7] has the same target. The test is described as follows: SPR Biacore T200, ROR1-Fc amine-coupled on CM5, antibody as analyte, bivalent analyte model (Ka1). The procedure: The binding affinity of both BA6M11(WT)x1A10M12 and BA6M11 (NA)x1A10M12 clones, which are anti-ROR1/anti-4-1BB bispecific antibodies comprising BA6M11 clone, was assessed using surface plasmon resonance (SPR). The antigens used for this assessment were human ROR1 protein (13968-H02H1, Fc tag) from Sino Biological and human 4-1BB protein (9220-4B-100, his tag) from R&D Systems. The measurements were conducted on a Biacore T200 instrument (Cytiva).
The CM5 chip (Cytiva, BR100530) was coated with a 5 μg/mL human ROR1 protein dilution in Acetate 4.0 (Cytiva, BR100349) using the amine coupling method (Cytiva, BR100050) to achieve a surface density of about 80 RU. […] These diluted antibody samples were then flowed over the human ROR1 protein-immobilized CM5 chip for approximately 60 seconds to conjugate the sample to the antigen, followed by flowing HBS-EP buffer (1×) over the sample-antigen complex for 180 seconds to dissociate the sample from the antigen. […] Binding affinity was analyzed using the bivalent analyte model to derive the primary association rate constant (Ka1) and primary dissociation rate constant (Kd1). The equilibrium dissociation constant (KD) was calculated by dividing the primary dissociation rate constant by the primary association rate constant, and this value was used to represent the final binding affinity.
(In general: Surface plasmon resonance follows binding to a sensor surface in real time, without labels.)

The target is the same in test [8]. In words: DACE ELISA; 3 days in human serum, against day 0. The procedure:
as §1

Test [9] has the same target. The test is described as follows: DACE ELISA (ROR1-Fc coated, 4-1BB-His detection); 7 days in human serum at 37°C. The protocol: as §1
Test [10] shares this target. The test is described as follows: DACE ELISA; 14 days in monkey serum, against day 0. The protocol: as §1

T1 sequence (Q01973 30-403 limits assumed): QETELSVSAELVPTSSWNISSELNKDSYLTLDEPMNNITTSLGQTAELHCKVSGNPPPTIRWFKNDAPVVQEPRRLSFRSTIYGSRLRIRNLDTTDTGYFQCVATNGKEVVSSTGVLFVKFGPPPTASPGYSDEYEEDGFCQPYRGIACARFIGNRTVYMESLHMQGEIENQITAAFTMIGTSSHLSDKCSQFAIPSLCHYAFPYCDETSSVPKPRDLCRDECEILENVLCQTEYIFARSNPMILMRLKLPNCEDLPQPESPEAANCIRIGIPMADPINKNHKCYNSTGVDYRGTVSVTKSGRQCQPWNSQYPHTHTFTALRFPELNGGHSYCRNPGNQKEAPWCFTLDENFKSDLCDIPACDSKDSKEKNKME

B1: BA6M11(NA)x1A10M12 anti-ROR1/anti-4-1BB bispecific antibody (bispecific antibody, human IgG1, lambda)
heavy: EVQLLESGGGLVQPGGSLRLSCAASGFTFSNYDMSWVRQAPGKGLEWVSAIYHSGSSKYYADSVKGRFTISRDNSKNTLYLQMNSLRAEDTAVYYCARGGSGAWDTGFDYWGQGTLVTVSSASTKGPSVFPLAPSSKSTSGGTAALGCLVKDYFPEPVTVSWNSGALTSGVHTFPAVLQSSGLYSLSSVVTVPSSSLGTQTYICNVNHKPSNTKVDKKV[human IgG1 Fc with changes not shown]GSGSGSGSGSGSGSGSGSQSVLTQPPSASGTPGQRVTISCSGSSSNIGNNYVTWYQQLPGTAPKLLIYADSHRPSGVPDRFSGSKSGTSASLAISGLRSEDEADYYCATWDYSLSGYVFGCGTKLTVLGGGGSGGGGSGGGGSGGGGSEVQLLESGGGLVQPGGSLRLSCAASGFTFSSYDMSWVRQAPGKCLEWVSWISYSGGSIYYADSVKGRFTISRDNSKNTLYLQMNSLRAEDTAVYYCARDAQRNSMREFDYWGQGTLVTVSS
light: QSVLTQPPSASGTPGQRVTISCSGSSSNIGSNDVSWYQQLPGTAPKLLIYYENNRPSGVPDRFSGSKSGTSASLAISGLRSEDEADYYCGAWDDSLSGYVFGGGTKLTVLGQPKAAPSVTLFPPSSEELQANKATLVCLISDFYPGAVTVAWKADSSPVKAGVETTTPSKQSNNKYAASSYLSLTPEQWKSHRSYSCQVTHEGSTVEKTVAPAECS
notes: As BA6M11(WT)x1A10M12 but with the N297A (NA) mutation in the Fc; also called BA6M11(NA) × 1A10M12
What is called EC50 is the concentration giving half of the maximal effect. A word on the kon: it is the second-order rate constant of association. Regarding B1, the “EC50 Ratio (%)” value worked out at 91% in test [1], 89% in test [2], 96% in test [8] and 76% in test [10]. For the same molecule, the EC50 in test [3] turned out to be 257 pM; in [4], 211 pM; in test [5], 233 pM; in test [6], 268 pM; in test [9] it was 236 pM. This molecule displayed a kon in [7] of 229000 M⁻¹ s⁻¹.

The values are drawn from US20260015418A1 (ABL BIO, published 2026).
